# Assay results: PubChem BioAssay AID1479 (National Center for Advancing Translational Sciences (NCATS), 2009)
# About 820 (0.29%) of roughly 280,000 compounds were called active. Inconclusive means that the source gave no clear call. Such entries were picked first, then a sample of the others. The call rests on the fitted dose curve; in most records, active means well fitted curve in either direction with a large enough effect; inconclusive means small, poorly fitted or top-dose-only effect; inactive means flat fitted curve, though single readings scatter. Potencies of inconclusive entries are left out as doubtful fits.
# Assay: Total Fluorescence Counterscreen for Inhibitors of the Interaction of Thyroid Hormone Receptor and Steroid Receptor Coregulator 2
# Details: TRb/SRC2 Texas Red total fluorescence interference; series mostly up to 106 µM
# Method in brief: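 Human TRβ ligand-binding domain (0.6 uM) and Texas Red SRC2 peptide (20 nM) in Tris buffer with 1 uM T3 and 5% DMSO were incubated with pinned compound for 5 hr at ambient temperature. Total fluorescence was computed as S + 2P (555/632 nm).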
# Potency means the concentration at half of the fitted maximal effect; tags describe the fitted curve by direction and shape or compound fluorescence and quenching.
row,Compound,Potency
1,CCOc1cc(-c2ccc(OC(=O)c3ccc(C)cc3)c(OC)c2)cc(=O)c2c(C)oc(C)c12,"inconclusive [falling, partial curve, poor fit]"
2,O=S(=O)(NC1CCCCC1Sc1ncccn1)c1ccc(Cl)cc1 (centres undefined),"inconclusive [falling, full curve, poor fit]"
3,COc1cccc(/C=C/C(=O)OCC(=O)NCC2CCCO2)c1 (centres undefined),inactive
4,Cc1ccc(NC(=O)Nc2ccc3c(c2)N(C)C(=O)CS3)cc1C,inactive
5,COc1ccc(C(=O)Nc2cc(S(=O)(=O)c3ccc(Cl)cc3)c(O)c(C)c2C)cc1,inactive
6,CSc1nnc(SCc2nc3sc(C(=O)O)c(C)c3c(=O)[nH]2)s1,"inconclusive [falling, single point]"
7,Cc1ccccc1NC1=C/C(=N\S(=O)(=O)c2cccs2)c2ccccc2C1=O,inactive
8,O=C(Nc1ccc2nc(-c3ccco3)c(-c3ccco3)nc2c1)NC1CC1,active: 35.5 µM [quencher]
9,CCOc1ccc(CCNC(=O)c2cnc3c(-c4ccccc4)c(C)nn3c2C)cc1OCC,"inconclusive [falling, partial curve, poor fit]"
10,Cc1cccc(NC(=O)CN2C(=O)CCc3ccccc32)c1C,active: 11.2 µM [quencher]
11,O=C(Nc1cccc(NC(=O)c2ccco2)c1)c1ccc([N+](=O)[O-])cc1,"inconclusive [quencher, partial curve]"
12,Cc1cccc(-c2nnc(SCCC(=O)O)o2)c1,"inconclusive [quencher, full curve]"
13,Cc1oncc1C(=O)Nc1ccc(C(F)(F)F)cc1,"inconclusive [quencher, full curve]"
14,CCOc1ccc(-c2nonc2NC(=O)c2oc3cc(Br)ccc3c2C)cc1,"inconclusive [falling, partial curve, poor fit]"
15,Oc1cccc(NC(=S)N=Nc2c(O)[nH]c3ccccc23)c1,"inconclusive [quencher, full curve]"
16,CC(C)C(C(=O)Nc1nccs1)c1ccccc1 (centres undefined),inactive
17,CCOc1ccc(C(=O)Nc2ccc3nc(SCC(=O)N4CCOCC4)sc3c2)cc1,"inconclusive [falling, full curve, poor fit]"
18,CCCCOC(=O)c1ccc(NC(=O)/C(C#N)=C/c2ccc(-c3ccccc3)o2)cc1,"inconclusive [falling, full curve, poor fit]"
19,O=C(Cn1c(=O)nc(-c2ccccc2)c2cc(Cl)ccc21)NCCCc1ccccc1,inactive
